Assay results as given in the supplement of paper PMC3334620.
Whole data set: some 33,000 sequences, median “E-score (-0.5 to 0.5)” near -0.035, cut for the highest 2% near 0.35. The list shows a part of the results.

molecular target: T1, Pdr3 (UniProt P33200); test: PBM E-score (8-mer binding enrichment) (E-score (-0.5 to 0.5)); higher = stronger / more preferred TF binding; most listed sequences are background and not binding sites; conditions: protein concentration: 200 nM; construct: GST-full length
T1 sequence: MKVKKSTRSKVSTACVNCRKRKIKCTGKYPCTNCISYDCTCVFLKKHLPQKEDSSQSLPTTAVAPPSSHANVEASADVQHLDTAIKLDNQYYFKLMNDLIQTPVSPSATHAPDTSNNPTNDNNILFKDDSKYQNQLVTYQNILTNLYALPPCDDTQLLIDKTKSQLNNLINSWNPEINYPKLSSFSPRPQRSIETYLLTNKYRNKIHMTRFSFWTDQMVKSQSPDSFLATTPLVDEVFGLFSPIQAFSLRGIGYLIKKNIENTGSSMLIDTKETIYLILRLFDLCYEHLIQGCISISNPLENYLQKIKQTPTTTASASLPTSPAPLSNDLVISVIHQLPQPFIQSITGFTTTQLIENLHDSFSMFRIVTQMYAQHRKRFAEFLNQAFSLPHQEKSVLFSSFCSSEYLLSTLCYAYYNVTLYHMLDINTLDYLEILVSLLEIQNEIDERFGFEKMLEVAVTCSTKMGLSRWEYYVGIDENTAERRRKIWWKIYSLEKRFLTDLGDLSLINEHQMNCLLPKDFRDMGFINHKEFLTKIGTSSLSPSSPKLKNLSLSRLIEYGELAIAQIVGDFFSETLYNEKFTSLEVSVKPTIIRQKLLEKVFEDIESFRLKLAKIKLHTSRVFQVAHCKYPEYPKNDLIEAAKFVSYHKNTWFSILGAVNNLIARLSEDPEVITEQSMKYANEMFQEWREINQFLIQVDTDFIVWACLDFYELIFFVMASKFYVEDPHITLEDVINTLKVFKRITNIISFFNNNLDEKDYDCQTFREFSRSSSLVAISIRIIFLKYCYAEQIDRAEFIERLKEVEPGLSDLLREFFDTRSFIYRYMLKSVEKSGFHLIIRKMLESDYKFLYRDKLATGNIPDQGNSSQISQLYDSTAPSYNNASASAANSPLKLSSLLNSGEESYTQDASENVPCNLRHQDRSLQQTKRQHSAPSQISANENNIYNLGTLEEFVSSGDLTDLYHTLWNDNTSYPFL
Description: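 Universal 'all 10-mer' protein binding microarrays (Agilent AMADID 015681) probed with GST-tagged S. cerevisiae TFs (full-length or DBD) made by in vitro transcription/translation (PURExpress), about 100-200 nM. Bound TF was detected with fluorescent anti-GST. Each ungapped 8-mer (which stands for itself and its reverse complement) is scored by the PBM enrichment score (E-score), a modified Wilcoxon-Mann-Whitney statistic from -0.5 to +0.5, computed with the Universal PBM Analysis Suite. Scale: above 0.35 generally sequence-specific binding.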

Sequence | PBM E-score
GATTGCGA | 0.116
CATATCAG | -0.0631
CGGTTGAC | 0.211
AGATTCTG | -0.136
CATACATC | -0.0515
GGGTACCC | 0.133
CAAAGCCA | -0.102
AATACTGG | 0.0346
CCCAGCAC | -0.0468
GCGTCCTA | -0.186
CCCGGCCG | 0.357
CAACTTCG | 9e-05
CTTCCTGA | 0.0336
AGCGTCCA | -0.133
AATATTTG | 0.0496
CGCGGTGC | 0.172
AGGGGAGG | 0.0661
ATCCACAT | -0.0244
AAACAGTG | -0.0767
CAAGCTAA | -0.213
ACGCCAGA | -0.0745
AGACTCCG | 0.142
CGATTGAC | -0.0366
ATACGGGA | 0.271
ACCCGACA | 0.197

Sequence | PBM E-score
CCTATATA | -0.00968
CCGAGTGA | 0.165
GATACTCA | 0.102
GACTCGCC | -0.177
ACTAGAGG | -0.161
GGGAGCGA | -0.0995
GATCTAAA | -0.0672
ATCACTCA | -0.194
CGCACACC | -0.00955
ACGGCTTA | 0.143
AGACACGA | 0.0137
ATCTACCG | 0.065
TGACTGAA | -0.233
AACTAGAG | -0.2
GGGATGCA | 0.0836
ACAATCTA | -0.19
CATCTGGG | -0.198
GCTTAGCC | -0.0322
AGATTTAT | 0.148
AACATAAA | -0.163
GGGGACGA | -0.0243
AATTACAA | -0.215
TTAGGCAA | -0.235
CCATACGG | 0.191
ACAACACG | 0.0551

Sequence | PBM E-score
CGGCTTAG | -0.00213
ACTCCCTA | -0.356
CCTAACAC | 0.175
AGTACGCC | -0.181
ACGGTCTC | -0.0316
ATTAGTCG | 0.0481
CACATCAG | -0.151
GGGTAGTA | -0.0701
CCGGCTAA | 0.237
AACGCACT | -0.0716
CTGGGACA | -0.036
TAGCGCAA | -0.0466
GCGTATTA | -0.134
GTAGCGCA | -0.0734
AAACTTCT | 0.0596
GGCAAGCC | -0.132
AATTTGTG | 0.159
AAGGACAA | -0.0278
ACGCTGTA | -0.00987
CTTTAGAA | -0.0131
ACGTAGGA | -0.0907
CTGCCGCA | -0.0767
CTATAATC | -0.112
GCCCAGGA | 0.0549
TAACTATA | -0.217

Sequence | PBM E-score
GCGGCAGC | 0.0179
GACTAGCA | -0.185
AATCGAAT | 0.0513
GCATTTAA | -0.0375
CCATCGCG | 0.296
GAAGTCCA | -0.00424
AGAAGGCA | -0.0904
CCGAGCAC | 0.122
AGCGCCGC | 0.198
CACCCGAA | 0.243
AATGCCGA | 0.219
GTCGTCGA | -0.182
AGCAGAGA | -0.137
GGCGAAAA | 0.0972
ACGAAATG | -0.0714
AACATCGT | -0.0769
CGTTGGCA | 0.103
CGGGTCGA | 0.198
ACATGTGC | -0.00887
ACGGATTG | 0.32
GATGCTGC | -0.0183
AAAGGGTG | -0.127
CCTACCGA | -0.15
GACCTCTC | 0.17
CTCGGAAG | 0.39

Sequence | PBM E-score
AACTACCG | 0.103
CTAGAGAC | -0.246
GGGGTTGA | 0.0304
GATAAACC | 0.136
ACTCCTTC | -0.152
AGCTAGAG | -0.286
CGGCTTTC | 0.259
ACCCCTCT | -0.22
GTTAGGCA | -0.298
CGCAATCC | 0.218
AATTACTC | 0.0695
ACTGTCAG | 0.053
ACCGTGTG | 0.0086
GAGGTCTA | -0.153
CCCACGAG | -0.0962
ACGTGGAG | -0.132
AGACTGTC | -0.152
CCGGCTAC | 0.276
ATGCCCTA | -0.124
CCTCTTCG | -0.038
CTTGCCTC | 0.0139
GCGATGGA | 0.236
AGTATATA | 0.245
CGCCCCAC | 0.0818
AGGACTCC | -0.0588

Sequence | PBM E-score
AGCTTGCC | -0.00322
AACGAGCC | -0.132
CCACTAGA | -0.349
CATAAATA | -0.00443
CGGTGTAC | -0.0705
CTGAAAAC | -0.107
ATACTGAC | 0.066
TCGAACGA | -0.0703
GAGGTATC | 0.105
CCAAATAG | -0.176
ACTCATAA | -0.115
CTCTAAAG | -0.0767
AGCTCATG | -0.176
ACGCAACC | 0.00065
AAGGGCAC | -0.157
GCATTGCA | -0.0198
CGGAGTCC | 0.304
CGCGGCTA | 0.291
ACCACCTA | -0.0964
CACTGAAC | -0.0516
ACGCGGTC | 0.181
ATCCCTAG | -0.164
CTGACGCC | -0.203
CTGCCCCC | -0.195
AAAGGTAG | -0.203

Sequence | PBM E-score
TAAACAGA | -0.179
ATCACCTA | -0.314
CTCAAGCA | -0.312
AATCATGC | -0.0505
CATTCTGC | 0.0977
GAGGATCC | 0.235
GTCTCGTA | -0.206
ACACATGC | -0.076
CACGACGA | -0.146
ATCCGTTC | 0.322
AACGGTGA | 0.0895
AATACAAT | 0.0802
CAAAACGA | -0.167
ATGAGATC | -0.042
CAAATTAA | 0.00547
AAGTGGAG | -0.181
TCGATAGA | -0.125
TCGTTAAA | -0.121
CACATCTC | -0.0317
TCATCAAA | -0.0771
ACCCATCC | -0.0211
GAGCAATA | -0.0292
